Article PMC4336329 (PLoS ONE, 2015)
The whole screen tested about 310,000 compounds, of which about 2,200 (0.71%) showed an effect of 50% or more. The effect is printed as a negative number. Some of the results follow.

Each molecule was assayed against human ether-à-go-go-related gene (hERG) potassium channel (human, UniProt Q12809) (assay: primary screen, population patch clamp on CHO cells stably expressing hERG).
Sequence of human ether-à-go-go-related gene (hERG) potassium channel (Q12809 whole entry, looked up): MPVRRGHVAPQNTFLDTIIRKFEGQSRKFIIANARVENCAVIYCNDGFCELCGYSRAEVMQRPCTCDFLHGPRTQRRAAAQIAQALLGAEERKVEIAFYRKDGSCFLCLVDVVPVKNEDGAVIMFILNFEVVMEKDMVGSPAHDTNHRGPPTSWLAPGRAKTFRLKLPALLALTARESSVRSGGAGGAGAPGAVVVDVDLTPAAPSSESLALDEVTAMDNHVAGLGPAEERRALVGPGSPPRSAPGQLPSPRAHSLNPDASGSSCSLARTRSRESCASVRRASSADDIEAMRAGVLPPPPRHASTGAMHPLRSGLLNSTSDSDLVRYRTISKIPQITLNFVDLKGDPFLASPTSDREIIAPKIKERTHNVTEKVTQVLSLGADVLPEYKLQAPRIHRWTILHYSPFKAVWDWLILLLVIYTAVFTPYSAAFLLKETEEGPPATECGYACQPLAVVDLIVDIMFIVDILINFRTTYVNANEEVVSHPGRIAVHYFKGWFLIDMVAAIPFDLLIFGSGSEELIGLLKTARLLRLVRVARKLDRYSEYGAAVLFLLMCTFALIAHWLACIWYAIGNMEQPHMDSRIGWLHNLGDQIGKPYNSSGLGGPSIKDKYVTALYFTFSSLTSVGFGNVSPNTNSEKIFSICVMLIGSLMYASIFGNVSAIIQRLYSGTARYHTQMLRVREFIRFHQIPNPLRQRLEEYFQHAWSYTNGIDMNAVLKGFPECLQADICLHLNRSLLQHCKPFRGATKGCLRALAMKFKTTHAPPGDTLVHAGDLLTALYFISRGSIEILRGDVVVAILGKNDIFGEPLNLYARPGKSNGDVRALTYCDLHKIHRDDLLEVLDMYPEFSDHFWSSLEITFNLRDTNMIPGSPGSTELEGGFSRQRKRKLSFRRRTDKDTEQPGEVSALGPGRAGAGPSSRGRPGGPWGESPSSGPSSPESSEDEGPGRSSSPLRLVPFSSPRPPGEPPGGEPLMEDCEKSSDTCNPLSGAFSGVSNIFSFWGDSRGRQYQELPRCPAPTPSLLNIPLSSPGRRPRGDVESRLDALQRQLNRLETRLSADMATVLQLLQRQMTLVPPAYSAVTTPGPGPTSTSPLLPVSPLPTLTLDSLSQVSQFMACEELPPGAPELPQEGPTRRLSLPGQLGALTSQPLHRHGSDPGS

SMILES	hERG current change (%, negative = inhibition) at 1uM
O=C(c1cccc(S(=O)(=O)Nc2ccccc2Cl)c1)N1CCN(c2ccccc2O)CC1	8.89%
CCOC(=O)Cn1c(=O)c2c(nc(Br)n2CC(=O)OCC)n(C)c1=O	6.79%
COc1ccccc1CN1C(=O)C(=O)N(Cc2cccc(C)c2)C1=O	8.03%
CCCCNS(=O)(=O)c1ccc2nc(SCC(=O)c3ccccc3OC)[nH]c2c1	7.06%
Cc1nn(Cc2c(F)c(F)c(F)c(F)c2F)c(C)c1NC(=O)c1ccc(COc2ccccc2Cl)o1	-6.54%
O=C(N/N=C1\CC2CC=CC12)c1ccccc1Cl (stereo not shown)	6.21%
Nc1c(C(=O)NC2CC2)c2nc3ccccc3nc2n1-c1ccc2c(c1)OCO2	8.46%
CC(C)c1ccc(N)c(S(=O)(=O)O)c1	8.42%
CCN(CC)c1ncnc2sc3c(c12)CCC3.Cl	4.44%
CCN(CC)c1ccc(CNc2nnnn2C)cc1	22.1%
COc1cc(C2CC(C(F)(F)F)n3ncc(C(=O)O)c3N2)cc(OC)c1OC (stereo not shown)	9.4%
Cn1ccnc1SCC(=O)Nc1cc(C(F)(F)F)ccc1N1CCOCC1	-0.591%
CC(=O)Nc1ccc(S(=O)(=O)NC2(C(F)(F)F)NC(=O)N(CC(C)C)C2=O)cc1 (stereo not shown)	12.4%
NS(=O)(=O)c1ccc(OC(=O)CNC(=O)OCc2ccccc2)cc1	5.88%
Cc1cccc(N(C)S(=O)(=O)c2csc(C(N)=O)c2)c1	12.7%
CCCc1cc(C(=O)NNC(=S)NCC)c2ccccc2n1	12.1%
CN(Cc1ccccc1)c1ccc(S(=O)(=O)N2CCC(C(=O)O)CC2)cc1[N+](=O)[O-]	5.62%
Fc1cccc(F)c1-c1nc(-c2ccncc2)no1	14.9%
Cc1cccc(CSc2nnnn2-c2ccccc2)c1	3.19%
Cc1ccc(C(=O)NCCSC2CCCCC2)cc1S(=O)(=O)Nc1ccccc1	6.28%
COc1ccc(C(=O)O)cc1NC(=S)NC(=O)/C=C/c1ccc(C(C)C)cc1	19%
O=C1CCCN1CCCNS(=O)(=O)c1ccc(Br)cc1	8.57%
O=[N+]([O-])c1cccc(/C=N/NS(=O)(=O)c2ccccc2)c1	10.2%
CC(C)(C)c1ccc(S(=O)(=O)N2CC3CC(C2)c2cccc(=O)n2C3)cc1 (stereo not shown)	1.64%
CCN(CC)CCNC(=O)C(=O)NCC1OCCN1S(=O)(=O)c1cccs1 (stereo not shown)	11.9%
